± gives the standard deviation of the averaged measurements. The list shows a part of the results.
The sequences below were run on PfAP2-EXP AP2 domain (GST-tagged) (assay: gcPBM binding intensity (ln(normalized median fluorescence intensity)); higher = stronger DNA binding).
In short: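 Using an Agilent 4 × 180k array, primer-extended double-stranded 36-bp intergenic genomic probes and negative controls were exposed for 1 h to GST-fused P. falciparum DNA-binding domains expressed in E. coli. Binding was carried out in 1× PBS with 1% milk, 0.2 mg/ml BSA, 0.5% salmon testes DNA and 0.03% Triton X-100, and protein was detected with Alexa488 anti-GST antibody and a 488 nm scan. Binding intensity is the highest Masliner-normalised natural-log median intensity across replicate spots of either probe orientation.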

Row | Sequence | gcPBM binding intensity (ln)
1 | ATTTCCTTGAATGTTGCATGCTGTATTTTAATTAAA [TGCATGCA_site280] | 9.88 ± 0.43
2 | AAAAAAAAAAAGTGCACACATAAAAATATGATCTAA [CACACA_site572] | 8.88 ± 0.13
3 | TAAATTTTTCTAAGTGCATGTTAATTTTTCAATTTA [TGCATGCA_site906] | 8.56 ± 0.16
4 | TAGATTATTATACTAGTGCAAATTATTTAAGAAAAA | 8.44 ± 0.13
5 | TTTAAAAAGTTATGAAGTACATATATATATATATAT [XGTACX_site2188] | 10.2 ± 0.29
6 | ATATTATTTATAAAAGTGCAAAAATCACTTCTTTTA [GTGCAC_site9656] | 8.27 ± 0.18
7 | AATATATCAAAAATGATGACATAAATATATTAATTT [GTGCAC_negctrl_site530] | 8.22 ± 0.45
8 | TAATATCGTATATGAGTGCAATATTTTAGATTTTGA | 8.295 ± 0.035
9 | AAAAAAAGGTAAAATTGTACATACGCACAAAAATAT [XGTACX_site2887] | 8.73 ± 0.33
10 | TGCACGCACAGACACACACACAACTAAAAAATAATG [CACACA_site7250] | 8.865 ± 0.064
11 | ATTTTCTTTTTTAAACGTACACATATTAAATATATA [XGTACX_site7773] | 8.86 ± 0.41
12 | TTTTTATTCCAGTATTCACACACGAATAACCACATA [CACACA_site1897] | 8.49 ± 0.34
13 | AATAAATTCATGAATTGTACGTAATGATAACATGAA [XGTACX_site2591] | 8.89 ± 0.38
14 | TTATAACTTTTCACAAGTACATATATATATGTATAA [XGTACX_site2306] | 8.45 ± 0.35
15 | TTTGGAAAGCGTGATTTTTGACAAACACAAAAAAAA [CACACA_negctrl_site651] | 8.43 ± 0.47
16 | ATATATATGTTTTTATGTACATATTTTTCTCCTTCA [XGTACX_site5899] | 8.9 ± 0.41
17 | AGATGAGAGATATATACACACAATAATACCTATTTA [CACACA_site6542] | 8.34 ± 0.59
18 | ATTATTTTATGAGACATAAAAAAAAAAAAAAAAAAA [CACACA_negctrl_site1067] | 8.09 ± 0.26
19 | TTATATTTATTTAATGAACACACGATATATTATTTT [CACACA_site1601] | 8.33 ± 0.44
20 | TTTTAAAAAAGAAAAAAAAAGGATCAGAGAAATATT [GTGCAC_negctrl_site79] | 8.59 ± 0.56
21 | TTGTAGATATTTATATGTACGAATTTATAAATATAG [XGTACX_site3611] | 8.38 ± 0.28
22 | AAATGTTAATTAAATGCATGTACAAAAGGAGCGAAT [TGCATGCA_site942] | 9.75 ± 0.45
23 | AAAAAAATTAATAATGTGCACTTTTTAGTATTTTTA [GTGCAC_site9744] | 8.435 ± 0.035

Row | Sequence | gcPBM binding intensity (ln)
24 | TTATTTATCAAAAAATGTACAAAAATATATAAACAA [XGTACX_site940] | 8.76 ± 0.44
25 | TTTGTCAACCAAAATTGTACAAATGTATTCCCAATA [XGTACX_site1350] | 8.36 ± 0.37
26 | AAAAAAAAAAAAAAAGGTACACAAAACGGTATTATT [XGTACX_site7064] | 8.64 ± 0.43
27 | ATACATATTAATATGTGTACACATTTTTATTTTTTT [XGTACX_site930] | 8.71 ± 0.3
28 | AACTCATAGGAGTGTGCACACAAAAAATTAAAAAAA [CACACA_site8996] | 9.03 ± 0.46
29 | TTTTTTTTTTTTGTCACACATATGGAATATATCTAT [CACACA_site5899] | 8.54 ± 0.54
30 | TTTTTTTTTTTTTTTGCACACATTTTAATTATTTTT [CACACA_site341] | 8.31 ± 0.48
31 | CTCAAAAAATATGAACGTACAAAATAAGTAATGACA [XGTACX_site590] | 8.91 ± 0.48
32 | AACTTTAAACCCTGAACACACACAAATACACCCAAA [CACACA_site7971] | 8.96 ± 0.6
33 | ATAATCCACAAGCACACACACACACCCATATATATA [CACACA_site1268] | 8.81 ± 0.35
34 | TATATATATATATATATATATATATATGTATATATG [XGTACX_negctrl_site242] | 9.99 ± 0.52
35 | CACCAAAATATATGTACATATGATAAATGTGAATAT [GTGCAC_negctrl_site83] | 8.99 ± 0.58
36 | CTTTTCTATTTTTTCGTGCACTATAAATATTTTAAT | 9.6 ± 0.23
37 | TAACTTTTTTTTTTTTTTTTTTAACTTTTATGTAAT [GTGCAC_negctrl_site156] | 8.07 ± 0.45
38 | TTTTACAATATTTTGTGTACTTATATTATGAGCTTA [XGTACX_site3287] | 8.68 ± 0.2
39 | GTCTATATATTTTAGGTGCAACGTAAATGTAAAAAT | 9.01 ± 0.36
40 | AAAATTATCGTTATATGTACGCATCTTAATACGTAT [XGTACX_site4063] | 8.335 ± 0.007
41 | ATTATACAAATTGAGGTGCATGAAACAAAATATGAA | 9.05 ± 0.28
42 | AGCTTGTAACAGTTTACACACTAATATTTATAAATT [CACACA_site6024] | 8.77 ± 0.47
43 | ATATTTTTTTTTTTATGTACTTATTTATAATTATTT [XGTACX_site5279] | 8.67 ± 0.37
44 | CTTATAAGAATACTAGTGCACATAATTTAACGAAAA | 9.02 ± 0.16
45 | TATATTTATTTATATACACACATAATAAAAAATATA [CACACA_site6527] | 8.37 ± 0.35
